Test results as given in the RNAGym collection of RNA variant scans (doi:10.7554/elife.90254).
The source gives no read counts; variants with many changes may rest on few reads.

B1: LINE1-mini (parent)
chain: GGCAGAGCUCAACACAGCGUGGCAAAGUGGCUGUGGCUAGACUGCC

Variants of: B1
Assay: self-cleavage, relative activity (ratio to wild type); higher = more cleavage; in vitro, sequencing; the parent is a self-cleaving ribozyme
Variant G1A A26U A39G G40U has a self-cleavage of 0.2.
Variant A24U C31U C37U A39U C45U has a self-cleavage of 0.02.
With G2C U9G C15A U43G the self-cleavage was 0.01.
In the case of C3G U9G G17C, the self-cleavage is reported as 0.18.
With G30C G35U A39U the self-cleavage was 0.09.
Variant A6G A11C G40U has a self-cleavage of 0.
With G5A A25U A39C A41G the self-cleavage was 0.13.
For C8U U28C G29U G44A, the self-cleavage was 0.06.
C10A A12U G21A C37A showed a self-cleavage of 0.02.
With C13A G21C U43A the self-cleavage was 0.06.
For G7A G21A A25C G33A G35C G36C C37A, the self-cleavage was 0.22.
A11C G19U G29U G44C gave a self-cleavage of 0.02.
Work on G5C C10U A12U G27A U34A yielded a self-cleavage of 0.01.
With A4G G5C U9G G27U G33U A41G the self-cleavage was 0.02.
With G1C C13A C31G G44A the self-cleavage was 0.02.
With C13A G22U G33U the self-cleavage was 0.08.
Variant C8U C10U C13U C15G has a self-cleavage of 0.13.
Work on C10A A26U U38C C42G yielded a self-cleavage of 0.03.
For C13U A26G C45U, the self-cleavage was 0.11.
Variant G17A C23U G33U G35U U43A G44C has a self-cleavage of 0.02.
With A12U G17U U20G C23U G29U the self-cleavage was 0.02.
G2A A25G A26G G35C gave a self-cleavage of 0.07.
Variant G5A U9A A14C has a self-cleavage of 0.11.
U9A A14C C23U G36U gave a self-cleavage of 0.06.
In the case of G27U U38G G44U, the self-cleavage is reported as 0.02.
For C8G A12G U28A U32C C46U, the self-cleavage was 0.02.
Work on A6C G17U A25U G30U yielded a self-cleavage of 0.19.
Variant G5U G36U G40C has a self-cleavage of 0.03.
In the case of C3U A6C A12G G17A, the self-cleavage is reported as 0.07.
In the case of A14G G27C G35A, the self-cleavage is reported as 0.08.
C8U G22U U38G showed a self-cleavage of 0.01.
In the case of A11C C42G C45U, the self-cleavage is reported as 0.01.
In the case of G1U G5C C18U G21U, the self-cleavage is reported as 0.01.
In the case of A4G A6G C13A C46U, the self-cleavage is reported as 0.02.
For G22C A24U A39U, the self-cleavage was 0.36.
Work on C10U A14G A41U yielded a self-cleavage of 0.04.
C10A U34G C46A gave a self-cleavage of 0.02.
In the case of C10A A12G C31A, the self-cleavage is reported as 0.04.
C10G U20A U34G showed a self-cleavage of 0.04.
For G1A A4G G19U G21A U34A G35A U38A, the self-cleavage was 0.03.
For C3U G7C C10U G17A U32C C45A, the self-cleavage was 0.05.
Variant C8G U9G A11G C13A C37A G40U has a self-cleavage of 0.01.
With C13U G21U G44C the self-cleavage was 0.06.
For C10U C18U C31U, the self-cleavage was 0.02.
Work on A12C C15A G22C G30C yielded a self-cleavage of 0.03.
C10A C18U A39C A41U C42G gave a self-cleavage of 0.05.
Variant C31A A41U C46U has a self-cleavage of 0.06.
For C15A G21C C31A G36C C45A, the self-cleavage was 0.15.
Variant C10U A11U A14U G21C C37G G44C C45U has a self-cleavage of 0.01.
Work on U9A A14U C23U C31A C46A yielded a self-cleavage of 0.1.
C10A A12U C18U G21U A39U showed a self-cleavage of 0.1.
With G5U C8A C10A A11C U38G the self-cleavage was 0.
Work on C8U G40C C45G C46A yielded a self-cleavage of 0.23.
For G2A C3U A4G A6C G7U C13G A14G G22C A25G, the self-cleavage was 0.11.
For C10G C13G A14C, the self-cleavage was 0.02.
Variant G22A G33A C46A has a self-cleavage of 0.11.
G1A G19A C45G showed a self-cleavage of 0.98.
With C8U C15G G35C the self-cleavage was 0.09.
C15A A24U G29U showed a self-cleavage of 0.02.
In the case of G27A G40U G44C C46A, the self-cleavage is reported as 0.23.
Variant G2A U28A G33U C37A G40C G44U has a self-cleavage of 0.05.
A12U G17A U43A showed a self-cleavage of 0.04.
C8A A11C G44U gave a self-cleavage of 0.02.
Variant C3U A4C C8A U32A U34C G44U has a self-cleavage of 0.06.
A12U C18U U28A G33U A39U gave a self-cleavage of 0.08.
For C3G G5A G40C C45A, the self-cleavage was 0.09.
Variant G17C G36U C37G has a self-cleavage of 0.11.
With U9C G19U G22C the self-cleavage was 0.04.
